Read counts are not given, so values of variants with three or more changes are uncertain.
B1: OR4K15 (parent)
chain: GUUAACGGUCAUAGGCCAUGGAAACUAGGAGCACCAUUUCGCUGCCAGUGAAGAAAUGAACAAAGAAAAUCUGGGCCAGGCAGGCAUCAAAAGAAAUAGUCUUGCGCUCAACCAGAAAGUCUGUAAUCAUUUUAAGGGUA

Variants of: B1
Test: self-cleavage, relative activity (ratio to wild type); higher = more cleavage; in vitro, sequencing; the parent is a self-cleaving ribozyme

**Q.** With A24G A67U A78U as the variant, how does the self-cleavage read?
**A.** 0.83

**Q.** Which self-cleavage does the source give for A24U U39C A59G A111U U122C here?
**A.** 0.07

**Q.** Which self-cleavage does the source give for A24G A52G U87C A89G A118G here?
**A.** 0.42

**Q.** Which self-cleavage does the source give for A24C A78G A117G U132C here?
**A.** 0.26

**Q.** Which self-cleavage does the source give for U26C A47G A54G A64G A89U A96G U108C here?
**A.** 0.02

**Q.** For A24U A78U A96G, which self-cleavage is on record?
**A.** 0.49

**Q.** For A24G A33G A36G A68G, which self-cleavage is on record?
**A.** 0.79

**Q.** For A23U U57A A59G U87C A110G, which self-cleavage is on record?
**A.** 0.15

**Q.** Which self-cleavage does the source give for A24G C46A A66G A82G A86U A135C here?
**A.** 1.08

**Q.** Which self-cleavage does the source give for C25A U103C A111U A118G U132C here?
**A.** 0.02

**Q.** Which self-cleavage does the source give for A24G A62G A66G here?
**A.** 1.06

**Q.** With A24U U39C U100A as the variant, how does the self-cleavage read?
**A.** 0.58

**Q.** For U26C A36U A51G A60G, which self-cleavage is on record?
**A.** 1.47

**Q.** Which self-cleavage does the source give for A24C A59U A118G U139C here?
**A.** 1.19

**Q.** For U26C A59G A117U, which self-cleavage is on record?
**A.** 1.64

**Q.** For A24G A67G U108A A118G U130C, which self-cleavage is on record?
**A.** 0

**Q.** For A24G U39C A54G, which self-cleavage is on record?
**A.** 0.64

**Q.** Which self-cleavage does the source give for A23U A78G A111G U120C here?
**A.** 0.02

**Q.** Which self-cleavage does the source give for A24G A36C A51G A66U U108C A117G here?
**A.** 0.02

**Q.** For A24U A51G A63G A68G, which self-cleavage is on record?
**A.** 0.98

**Q.** Which self-cleavage does the source give for A24C U43C A90G U100C here?
**A.** 2.46

**Q.** Which self-cleavage does the source give for A24G A27G A55G A78G U120C here?
**A.** 0.18

**Q.** For A24U U122C U131C, which self-cleavage is on record?
**A.** 1.32

**Q.** With A24U A94G A114U U131C as the variant, how does the self-cleavage read?
**A.** 0.04

**Q.** With A24G A66G A78U as the variant, how does the self-cleavage read?
**A.** 0.51

**Q.** With A24G U37C U122C A140G as the variant, how does the self-cleavage read?
**A.** 0.67

**Q.** With A23U U57C A63G A114C C128A as the variant, how does the self-cleavage read?
**A.** 0.07

**Q.** With A24C A54G A114G as the variant, how does the self-cleavage read?
**A.** 0.48

**Q.** With A24G A30G G74U U108C as the variant, how does the self-cleavage read?
**A.** 0.04

**Q.** Which self-cleavage does the source give for A24G A30G U103C here?
**A.** 0.8

**Q.** Which self-cleavage does the source give for U26C A60G A66G U122C here?
**A.** 1.05

**Q.** With A24G A94G U130C as the variant, how does the self-cleavage read?
**A.** 1.46

**Q.** For A24C A56G U133C, which self-cleavage is on record?
**A.** 2.46

**Q.** With A24G A68G A78G A94G as the variant, how does the self-cleavage read?
**A.** 0.3

**Q.** For A24U C45A U100C, which self-cleavage is on record?
**A.** 2.07

**Q.** For A23U A36G A63G A67G U103C, which self-cleavage is on record?
**A.** 1.57

**Q.** With U26A G73A U124C as the variant, how does the self-cleavage read?
**A.** 0.02

**Q.** Which self-cleavage does the source give for A24U A51U A86G U127C here?
**A.** 0.88

**Q.** With A24G A52G A64G as the variant, how does the self-cleavage read?
**A.** 1.54

**Q.** Which self-cleavage does the source give for A23U A55U U57C A66U A78G A94C U132C here?
**A.** 0.1

**Q.** With A24G A66G A86G A89G A140U as the variant, how does the self-cleavage read?
**A.** 0.67

**Q.** For A24C A90U A126G U127C, which self-cleavage is on record?
**A.** 0.65

**Q.** For A24G A125U U139A, which self-cleavage is on record?
**A.** 2.73

**Q.** With A24G A54G A92G G137A as the variant, how does the self-cleavage read?
**A.** 2.08

**Q.** With A24G U26C U57A A63G as the variant, how does the self-cleavage read?
**A.** 1.48

**Q.** For A24C C46U A91U, which self-cleavage is on record?
**A.** 0.57

**Q.** Which self-cleavage does the source give for U26A U39C A69G A110G here?
**A.** 0.08

**Q.** Which self-cleavage does the source give for A24U A82U U103C here?
**A.** 0.1

**Q.** For A24G A36G U39A G44A A117G A134G, which self-cleavage is on record?
**A.** 2.05

**Q.** For A24G A67G U70C A90G A110C, which self-cleavage is on record?
**A.** 0.11

**Q.** With A24G A51U A69U A98G A118G as the variant, how does the self-cleavage read?
**A.** 0.26

**Q.** For U26C A59U G99A A117U U120C, which self-cleavage is on record?
**A.** 0.1

**Q.** With A24C U43C A90U U100G U122C as the variant, how does the self-cleavage read?
**A.** 2.29

**Q.** For A24G A47U A90C U102A A118G, which self-cleavage is on record?
**A.** 0.14

**Q.** With A24G U43C A91G A116G U130C as the variant, how does the self-cleavage read?
**A.** 0.62

**Q.** With A24U U39C A52G as the variant, how does the self-cleavage read?
**A.** 1.07

**Q.** Which self-cleavage does the source give for A24U U39C U49C A55G A64G here?
**A.** 1.54

**Q.** Which self-cleavage does the source give for A24G U39C U72C U97C U130C here?
**A.** 0.01

**Q.** For A24G A63G C77U, which self-cleavage is on record?
**A.** 1.46

**Q.** For A24G A111U A125U, which self-cleavage is on record?
**A.** 0.18

**Q.** With U26C A62G A64G U108C as the variant, how does the self-cleavage read?
**A.** 0.04

**Q.** Which self-cleavage does the source give for A24U A60G A94G here?
**A.** 1.59

**Q.** With A24G A30G A64G A91G as the variant, how does the self-cleavage read?
**A.** 0.17

**Q.** For A24G U57C A92G, which self-cleavage is on record?
**A.** 0.56

**Q.** With A24G U39C U97C as the variant, how does the self-cleavage read?
**A.** 1.34

**Q.** With A24G A114U U139C as the variant, how does the self-cleavage read?
**A.** 0.14

**Q.** With U26A U43C A56G A82U A117G A135G as the variant, how does the self-cleavage read?
**A.** 0.2

**Q.** Which self-cleavage does the source give for C25A U43A A116G here?
**A.** 1.07

**Q.** Which self-cleavage does the source give for A24C A62G A89G U102C here?
**A.** 1.73

**Q.** Which self-cleavage does the source give for A24G A63G A91G here?
**A.** 1.42

**Q.** With A24G U37C A69G G115U as the variant, how does the self-cleavage read?
**A.** 0

**Q.** With A24G A92G A116G as the variant, how does the self-cleavage read?
**A.** 0.07

**Q.** For U26A A47G A55G A60G, which self-cleavage is on record?
**A.** 0.78

**Q.** Which self-cleavage does the source give for A24G A94G U103C A117G here?
**A.** 0.32

**Q.** For A24G C61U U108A A126G, which self-cleavage is on record?
**A.** 0.04

**Q.** For A24G A95G U103C U130C, which self-cleavage is on record?
**A.** 0.84

**Q.** With U26A U37C U49C U87C A116U U124A as the variant, how does the self-cleavage read?
**A.** 0

**Q.** Which self-cleavage does the source give for A24G A118G U122C here?
**A.** 1.97

**Q.** Which self-cleavage does the source give for A24G U43A A66U here?
**A.** 1.77

**Q.** For U26C A90G U131C, which self-cleavage is on record?
**A.** 0.74

**Q.** Which self-cleavage does the source give for A24U A82G A116G here?
**A.** 0.45

**Q.** With C25U A30G U39C U102C as the variant, how does the self-cleavage read?
**A.** 0.77

**Q.** Which self-cleavage does the source give for A24G A82C A96C here?
**A.** 0.07

From the RNAGym collection of RNA variant scans (doi:10.7554/elife.90254)
